Assay results published in US20240392031A1 (BICARA THERAPEUTICS, published 2024).

B1: BCA356, anti-hCAIX hIL-12 fusion protein (hIL-12p40 W37A/F82A/K219A, Variant O) (other)
heavy 1: EVRLVESGGGLVKPGGSLRLSCAASGFTFSNYYMSWIRQAPEKRLELVSAINSDGGITYYLDTVKGRFTISRDNAKNSLYLQMNSLRAEDTALFYCARHRSGYFSMDYWGQGTSVTVSS[human IgG1 constant region with changes left out here]GGGGSGGGGSGGGGSIWELKKDVYVVELDAYPDAPGEMVVLTCDTPEEDGITWTLDQSSEVLGSGKTLTIQVKEAGDAGQYTCHKGGEVLSHSLLLLHKKEDGIWSTDILKDQKEPKNKTFLRCEAKNYSGRFTCWWLTTISTDLTFSVKSSRGSSDPQGVTCGAATLSAERVRGDNKEYEYSVECQEDSACPAAEESLPIEVMVDAVHKLAYENYTSSFFIRDIIKPDPPKNLQLKPLKNSRQVEVSWEYPDTWSTPHSYFSLTFCVQVQGKSKREKKDRVFTDKTSATVICRKNASISVRAQDRYYSSSWSEWASVPCS
heavy 2: EVRLVESGGGLVKPGGSLRLSCAASGFTFSNYYMSWIRQAPEKRLELVSAINSDGGITYYLDTVKGRFTISRDNAKNSLYLQMNSLRAEDTALFYCARHRSGYFSMDYWGQGTSVTVSSASTKGPSVFPLAPSSKSTSGGTAALGCLVKDYFPEPVTVSWNSGALTSGVHTFPAVLQSSGLYSLSSVVTVPSSSLGTQTYICNVNHKPSNTKVDKKV[human IgG1 Fc with changes left out here]GGGGSGGGGSGGGGSRNLPVATPDPGMFPCLHHSQNLLRAVSNMLQKARQTLEFYPCTSEEIDHEDITKDKTSTVEACLPLELTKNESCLNSRETSFITNGSCLASRKTSFMMALCLSSIYEDLKMYQVEFKTMNAKLLMDPKRQIFLDQNMLAVIDELMQALNFNSETVPQKSSLEEPDFYKTKIKLCILLHAFRIRAVTIDRVMSYLNAS
light: EIVMTQSPATLSVSPGERATLSCKASQNVVSAVAWYQQKPGQSPRLLIYSASNRYTGIPARFSGSGSGTEFTLTISSLQSEDFAAYYCQQYRNYPWTFGGGTKVEIKRTVAAPSVFIFPPSDEQLKSGTASVVCLLNNFYPREAKVQWKVDNALQSGNSQESVTEQDSKDSTYSLSSTLTLSKADYEKHKVYACEVTHQGLSSPVTKSFNRGEC
B2: BCA373, anti-hCAIX hIL-12 fusion protein (hIL-12p40 W37A, F82A) (other)
heavy 1: EVRLVESGGGLVKPGGSLRLSCAASGFTFSNYYMSWIRQAPEKRLELVSAINSDGGITYYLDTVKGRFTISRDNAKNSLYLQMNSLRAEDTALFYCARHRSGYFSMDYWGQGTSVTVSS[human IgG1 constant region with changes left out here]GGGGSGGGGSGGGGSIWELKKDVYVVELDAYPDAPGEMVVLTCDTPEEDGITWTLDQSSEVLGSGKTLTIQVKEAGDAGQYTCHKGGEVLSHSLLLLHKKEDGIWSTDILKDQKEPKNKTFLRCEAKNYSGRFTCWWLTTISTDLTFSVKSSRGSSDPQGVTCGAATLSAERVRGDNKEYEYSVECQEDSACPAAEESLPIEVMVDAVHKLKYENYTSSFFIRDIIKPDPPKNLQLKPLKNSRQVEVSWEYPDTWSTPHSYFSLTFCVQVQGKSKREKKDRVFTDKTSATVICRKNASISVRAQDRYYSSSWSEWASVPCS
heavy 2: EVRLVESGGGLVKPGGSLRLSCAASGFTFSNYYMSWIRQAPEKRLELVSAINSDGGITYYLDTVKGRFTISRDNAKNSLYLQMNSLRAEDTALFYCARHRSGYFSMDYWGQGTSVTVSSASTKGPSVFPLAPSSKSTSGGTAALGCLVKDYFPEPVTVSWNSGALTSGVHTFPAVLQSSGLYSLSSVVTVPSSSLGTQTYICNVNHKPSNTKVDKKV[human IgG1 Fc with changes left out here]GGGGSGGGGSGGGGSRNLPVATPDPGMFPCLHHSQNLLRAVSNMLQKARQTLEFYPCTSEEIDHEDITKDKTSTVEACLPLELTKNESCLNSRETSFITNGSCLASRKTSFMMALCLSSIYEDLKMYQVEFKTMNAKLLMDPKRQIFLDQNMLAVIDELMQALNFNSETVPQKSSLEEPDFYKTKIKLCILLHAFRIRAVTIDRVMSYLNAS
light: B1 light
B3: BCA372, anti-hCAIX hIL-12 fusion protein (hIL-12p40 K219A) (other)
heavy 1: EVRLVESGGGLVKPGGSLRLSCAASGFTFSNYYMSWIRQAPEKRLELVSAINSDGGITYYLDTVKGRFTISRDNAKNSLYLQMNSLRAEDTALFYCARHRSGYFSMDYWGQGTSVTVSS[human IgG1 constant region with changes left out here]GGGGSGGGGSGGGGSIWELKKDVYVVELDWYPDAPGEMVVLTCDTPEEDGITWTLDQSSEVLGSGKTLTIQVKEFGDAGQYTCHKGGEVLSHSLLLLHKKEDGIWSTDILKDQKEPKNKTFLRCEAKNYSGRFTCWWLTTISTDLTFSVKSSRGSSDPQGVTCGAATLSAERVRGDNKEYEYSVECQEDSACPAAEESLPIEVMVDAVHKLAYENYTSSFFIRDIIKPDPPKNLQLKPLKNSRQVEVSWEYPDTWSTPHSYFSLTFCVQVQGKSKREKKDRVFTDKTSATVICRKNASISVRAQDRYYSSSWSEWASVPCS
heavy 2: EVRLVESGGGLVKPGGSLRLSCAASGFTFSNYYMSWIRQAPEKRLELVSAINSDGGITYYLDTVKGRFTISRDNAKNSLYLQMNSLRAEDTALFYCARHRSGYFSMDYWGQGTSVTVSSASTKGPSVFPLAPSSKSTSGGTAALGCLVKDYFPEPVTVSWNSGALTSGVHTFPAVLQSSGLYSLSSVVTVPSSSLGTQTYICNVNHKPSNTKVDKKV[human IgG1 Fc with changes left out here]GGGGSGGGGSGGGGSRNLPVATPDPGMFPCLHHSQNLLRAVSNMLQKARQTLEFYPCTSEEIDHEDITKDKTSTVEACLPLELTKNESCLNSRETSFITNGSCLASRKTSFMMALCLSSIYEDLKMYQVEFKTMNAKLLMDPKRQIFLDQNMLAVIDELMQALNFNSETVPQKSSLEEPDFYKTKIKLCILLHAFRIRAVTIDRVMSYLNAS
light: B1 light
B4: BCA378, anti-hCAIX hIL-12 fusion protein (hIL-12p40 K217A, K219A) (other)
heavy 1: EVRLVESGGGLVKPGGSLRLSCAASGFTFSNYYMSWIRQAPEKRLELVSAINSDGGITYYLDTVKGRFTISRDNAKNSLYLQMNSLRAEDTALFYCARHRSGYFSMDYWGQGTSVTVSS[human IgG1 constant region with changes left out here]GGGGSGGGGSGGGGSIWELKKDVYVVELDWYPDAPGEMVVLTCDTPEEDGITWTLDQSSEVLGSGKTLTIQVKEFGDAGQYTCHKGGEVLSHSLLLLHKKEDGIWSTDILKDQKEPKNKTFLRCEAKNYSGRFTCWWLTTISTDLTFSVKSSRGSSDPQGVTCGAATLSAERVRGDNKEYEYSVECQEDSACPAAEESLPIEVMVDAVHALAYENYTSSFFIRDIIKPDPPKNLQLKPLKNSRQVEVSWEYPDTWSTPHSYFSLTFCVQVQGKSKREKKDRVFTDKTSATVICRKNASISVRAQDRYYSSSWSEWASVPCS
heavy 2: EVRLVESGGGLVKPGGSLRLSCAASGFTFSNYYMSWIRQAPEKRLELVSAINSDGGITYYLDTVKGRFTISRDNAKNSLYLQMNSLRAEDTALFYCARHRSGYFSMDYWGQGTSVTVSSASTKGPSVFPLAPSSKSTSGGTAALGCLVKDYFPEPVTVSWNSGALTSGVHTFPAVLQSSGLYSLSSVVTVPSSSLGTQTYICNVNHKPSNTKVDKKV[human IgG1 Fc with changes left out here]GGGGSGGGGSGGGGSRNLPVATPDPGMFPCLHHSQNLLRAVSNMLQKARQTLEFYPCTSEEIDHEDITKDKTSTVEACLPLELTKNESCLNSRETSFITNGSCLASRKTSFMMALCLSSIYEDLKMYQVEFKTMNAKLLMDPKRQIFLDQNMLAVIDELMQALNFNSETVPQKSSLEEPDFYKTKIKLCILLHAFRIRAVTIDRVMSYLNAS
light: B1 light
B5: BCA371, anti-hCAIX hIL-12 fusion protein (hIL-12p40 K217A) (other)
heavy 1: EVRLVESGGGLVKPGGSLRLSCAASGFTFSNYYMSWIRQAPEKRLELVSAINSDGGITYYLDTVKGRFTISRDNAKNSLYLQMNSLRAEDTALFYCARHRSGYFSMDYWGQGTSVTVSS[human IgG1 constant region with changes left out here]GGGGSGGGGSGGGGSIWELKKDVYVVELDWYPDAPGEMVVLTCDTPEEDGITWTLDQSSEVLGSGKTLTIQVKEFGDAGQYTCHKGGEVLSHSLLLLHKKEDGIWSTDILKDQKEPKNKTFLRCEAKNYSGRFTCWWLTTISTDLTFSVKSSRGSSDPQGVTCGAATLSAERVRGDNKEYEYSVECQEDSACPAAEESLPIEVMVDAVHALKYENYTSSFFIRDIIKPDPPKNLQLKPLKNSRQVEVSWEYPDTWSTPHSYFSLTFCVQVQGKSKREKKDRVFTDKTSATVICRKNASISVRAQDRYYSSSWSEWASVPCS
heavy 2: EVRLVESGGGLVKPGGSLRLSCAASGFTFSNYYMSWIRQAPEKRLELVSAINSDGGITYYLDTVKGRFTISRDNAKNSLYLQMNSLRAEDTALFYCARHRSGYFSMDYWGQGTSVTVSSASTKGPSVFPLAPSSKSTSGGTAALGCLVKDYFPEPVTVSWNSGALTSGVHTFPAVLQSSGLYSLSSVVTVPSSSLGTQTYICNVNHKPSNTKVDKKV[human IgG1 Fc with changes left out here]GGGGSGGGGSGGGGSRNLPVATPDPGMFPCLHHSQNLLRAVSNMLQKARQTLEFYPCTSEEIDHEDITKDKTSTVEACLPLELTKNESCLNSRETSFITNGSCLASRKTSFMMALCLSSIYEDLKMYQVEFKTMNAKLLMDPKRQIFLDQNMLAVIDELMQALNFNSETVPQKSSLEEPDFYKTKIKLCILLHAFRIRAVTIDRVMSYLNAS
light: B1 light
B6: BCA377, anti-hCAIX hIL-12 fusion protein (hIL-12p40 F82A, K219A) (other)
heavy 1: EVRLVESGGGLVKPGGSLRLSCAASGFTFSNYYMSWIRQAPEKRLELVSAINSDGGITYYLDTVKGRFTISRDNAKNSLYLQMNSLRAEDTALFYCARHRSGYFSMDYWGQGTSVTVSS[human IgG1 constant region with changes left out here]GGGGSGGGGSGGGGSIWELKKDVYVVELDWYPDAPGEMVVLTCDTPEEDGITWTLDQSSEVLGSGKTLTIQVKEAGDAGQYTCHKGGEVLSHSLLLLHKKEDGIWSTDILKDQKEPKNKTFLRCEAKNYSGRFTCWWLTTISTDLTFSVKSSRGSSDPQGVTCGAATLSAERVRGDNKEYEYSVECQEDSACPAAEESLPIEVMVDAVHKLAYENYTSSFFIRDIIKPDPPKNLQLKPLKNSRQVEVSWEYPDTWSTPHSYFSLTFCVQVQGKSKREKKDRVFTDKTSATVICRKNASISVRAQDRYYSSSWSEWASVPCS
heavy 2: EVRLVESGGGLVKPGGSLRLSCAASGFTFSNYYMSWIRQAPEKRLELVSAINSDGGITYYLDTVKGRFTISRDNAKNSLYLQMNSLRAEDTALFYCARHRSGYFSMDYWGQGTSVTVSSASTKGPSVFPLAPSSKSTSGGTAALGCLVKDYFPEPVTVSWNSGALTSGVHTFPAVLQSSGLYSLSSVVTVPSSSLGTQTYICNVNHKPSNTKVDKKV[human IgG1 Fc with changes left out here]GGGGSGGGGSGGGGSRNLPVATPDPGMFPCLHHSQNLLRAVSNMLQKARQTLEFYPCTSEEIDHEDITKDKTSTVEACLPLELTKNESCLNSRETSFITNGSCLASRKTSFMMALCLSSIYEDLKMYQVEFKTMNAKLLMDPKRQIFLDQNMLAVIDELMQALNFNSETVPQKSSLEEPDFYKTKIKLCILLHAFRIRAVTIDRVMSYLNAS
light: B1 light

Target: T1, human IL-12 receptor (hIL-12R), heterodimer of hIL-12Rβ1 and hIL-12Rβ2 (human, UniProt P42701 24-662; Q99665 24-862)
Assay: cell-based or functional assay

Row | IL-12 activity in HEK-IL-12 reporter assay (SEAP), fold attenuation compared to BCA351 (wild type IL-12 fusion); average of three independent experiments | Binder
1 | ~7000 fold | B1

Target: T1, human IL-12 receptor (hIL-12R), …
Assay: cell-based or functional assay
Remark: another data set of the same source

Row | Fold Attenuation (Over Fc-IL-12 Control); HEK-Blue IL-12 reporter assay | Binder
2 | 207 fold | B2
3 | 2 fold | B3
4 | 5 fold | B4
5 | 2 fold | B5
6 | 460 fold | B6
7 | 7300 fold | B1

Target: T1, human IL-12 receptor (hIL-12R), …
Assay: cell-based or functional assay
Remark: another data set of the same source

Row | HEK-IL12 reporter assay Attenuation (summary table) | Binder
8 | 207 fold | B2
9 | 2 fold | B3
10 | 5 fold | B4
11 | 2 fold | B5
12 | 460 fold | B6
13 | 7300 fold | B1

Target: T1, human IL-12 receptor (hIL-12R), …
Assay: cell-based or functional assay
Remark: another data set of the same source

Row | HEK IL-12 Reporter Assay (Ratio of EC50) | PSTAT (CD8) flow cytometry - percent reduction at 16.9 nM | Binder
14 | 7300 ratio | 91.1% | B1
